Results reported in PubChem BioAssay AID651820 (National Center for Advancing Translational Sciences (NCATS), 2012).
The whole screen tested about 340,000 compounds, of which about 12,000 (3.5%) were called active. The inconclusive results got no clear call from the source; some entries with a clear call stand among them for comparison. The call rests on the fitted dose curve; in most records, active means well fitted inhibition curve with a large enough effect; inconclusive means small, poorly fitted or top-dose-only effect, or another doubt; inactive means no such curve, though single readings can be large or run the other way. Potencies of inconclusive entries are left out as doubtful fits.

Assay: qHTS Assay for Inhibitors of Hepatitis C Virus (HCV)
Conditions: Huh7.5.1 HCVcc-Cre (HCVcc is cell-culture hepatitis C virus) infection, luciferase reporter, 44 h; activity change, negative = inhibition: at 41.8 µM (top of the series)
Method in brief: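 Luciferase read-out (15 sec integration) after a 15 min room-temperature substrate step quantifies HCVcc-Cre infection. Cells, 1,000 per well, had compound added 4 h post-plating, then virus at ~0.5 moi, and were cultured 44 h.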
On the % scale 0 is the no-effect control and ±100 the full control effect; potency means the concentration at half of the fitted maximal effect; tags describe the fitted curve by direction and shape.

Q: For `COc1cc(OC)c(-c2nc3ccccc3s2)cc1OC`, which Potency is on record?
A: The Potency was active: 11.2 µM.

Q: With `Fc1ccc(-c2cc(-c3nnc4n3CCCCC4)c3ccccc3n2)cc1` as the compound, how does the Potency read?
A: Its Potency is inconclusive [inhibitor, single point].

Q: With `CCCCNC(=S)N(Cc1c(C)noc1C)c1ccccc1` as the compound, how does the Potency read?
A: Its Potency is inconclusive [inhibitor, full curve, poor fit].

Q: For `O=C(O)CN1C(=O)COc2ccc(S(=O)(=O)N3CCCCCC3)cc21`, which “activity change, negative = inhibition” value is on record?
A: Its value is inactive: 22.2%.

Q: With `CC(C)n1c(-c2ccco2)csc1=Nc1cccnc1` as the compound, how does the Potency read?
A: The Potency was inconclusive [inhibitor, partial curve].

Q: For `Cc1cccc(N2CCN(C(=S)Nc3ccc4nc5n(c(=O)c4c3)CCCCC5)CC2)c1C`, which Potency is on record?
A: The Potency was active: 6.31 µM.

Q: Which “activity change, negative = inhibition” value does the source give for `CCC[N+]12CCC(CC1)C(C(O)(c1ccccc1)c1ccccc1)C2` (stereo unspecified) here?
A: Its value is inactive: -5.76%.

Q: With `Cc1ccc(OCc2cc(C(=O)NC3CCCCC3)no2)cn1` as the compound, how does the Potency read?
A: The Potency was inconclusive [inhibitor, partial curve].

Q: With `Cc1ccc(C(=O)OCC(=O)NCc2cc(C)c(O)c(C)c2)cc1S(=O)(=O)N1CCCCC1` as the compound, how does the Potency read?
A: Its Potency is inconclusive [inhibitor, partial curve].

Q: Which Potency does the source give for `CC(C)c1ccc(NC(=O)CN2C(=O)COc3ccc(S(=O)(=O)N4CCOCC4)cc32)cc1` here?
A: Its Potency is inconclusive [inhibitor, full curve, poor fit].

Q: For `CCOC(=O)C1(CCOc2ccccc2)CCN(Cc2ccc(O)cc2)CC1`, which Potency is on record?
A: The Potency was inconclusive [inhibitor, single point].

Q: For `Cc1ccc(/C=C/c2nc3ccccc3c(=O)n2CCc2ccccc2)cc1`, which Potency is on record?
A: Its Potency is inconclusive [inhibitor, single point].

Q: With `COc1ccc2c(c1)c1nnc(SC)nc1n2C` as the compound, how does the “activity change, negative = inhibition” value read?
A: Its value is inactive: 8.15%.

Q: With `Cc1ccc2c(C(=O)N3CCN(c4ccccc4)CC3)cc(-c3cccnc3)nc2c1C` as the compound, how does the Potency read?
A: Its Potency is inconclusive [inhibitor, single point].

Q: Which “activity change, negative = inhibition” value does the source give for `CC(=O)Nc1ccc(SCC(=O)NC(=O)c2ccc(S(=O)(=O)N(C)C)cc2)cc1` here?
A: The value was inactive: -4.3%.

Q: Which Potency does the source give for `COc1ccc(-c2c(C#N)c(N)nc3sc(C(=O)c4ccccc4)c(N)c23)cc1` here?
A: The Potency was inconclusive [inhibitor, single point].

Q: With `COCCn1c(N)c(C(=O)NCc2cccs2)c2nc3ccccc3nc21` as the compound, how does the Potency read?
A: Its Potency is inconclusive [inhibitor, single point].

Q: For `Cc1ccc(S(=O)(=O)C(NC(=O)c2ccccc2)=C(Cl)Cl)cc1`, which Potency is on record?
A: Its Potency is inconclusive [inhibitor, partial curve].

Q: Which Potency does the source give for `CCOC(=O)C1CCCN(C(=O)c2ccc3c(c2)NC(=O)C(N2CCOCC2)S3)C1` (stereo unspecified) here?
A: The Potency was inconclusive [inhibitor, single point].

Q: For `CCSC1=C(C#N)C(c2ccc(Cl)cc2)C2=C(CCCC2=O)N1` (stereo unspecified), which Potency is on record?
A: The Potency was active: 25.1 µM.

Q: For `Cc1ccc(NC(=S)N(CCCN(C)C)Cc2cc3cc4c(cc3[nH]c2=O)OCO4)cc1`, which Potency is on record?
A: The Potency was inconclusive [inhibitor, single point].

Q: Which Potency does the source give for `CCOc1cc(/C=N\NC(N)=O)cc(Br)c1OC(C)C` here?
A: Its Potency is inconclusive [inhibitor, partial curve].

Q: Which Potency does the source give for `CN(C)S(=O)(=O)c1cccc(C(=O)N=C2N=C3C=CC(Cl)=CN3Cc3ccccc32)c1` here?
A: Its Potency is inconclusive [inhibitor, single point].

Q: Which Potency does the source give for `O=C(/C=C/c1ccco1)NC(=S)Nc1nc(-c2ccc3ccccc3c2)cs1` here?
A: Its Potency is inconclusive [inhibitor, full curve].

Q: For `Cc1cccc(CCNC(=O)COc2cc(=O)n(C)c3ccccc23)c1`, which “activity change, negative = inhibition” value is on record?
A: Its value is inactive: -3.22%.

Q: For `COc1cc(N(Cc2ccccc2)Cc2ccccc2)c2ncn(C(C)C)c2c1`, which Potency is on record?
A: Its Potency is active: 11.2 µM.

Q: Which Potency does the source give for `O=C1c2ccsc2SCCN1Cc1cccc(Cl)c1` here?
A: The Potency was inconclusive [inhibitor, single point].

Q: For `Cc1ccc(SCC(=O)Nc2cccc(C)c2)cc1`, which Potency is on record?
A: The Potency was inconclusive [inhibitor, single point].

Q: Which “activity change, negative = inhibition” value does the source give for `Nc1nnc(N2CCCCCC2)s1` here?
A: The value was inactive: 18.3%.

Q: With `COc1cc(/C=C/C(=O)OCC(=O)N2CCC(Cc3ccccc3)CC2)ccc1O` as the compound, how does the Potency read?
A: Its Potency is inconclusive [inhibitor, full curve].

Q: For `Cn1c(=O)c2ccccc2n(CC(=O)Nc2ccc3c(c2)OCCO3)c1=O`, which Potency is on record?
A: Its Potency is inconclusive [inhibitor, partial curve].

Q: Which Potency does the source give for `COc1ccc(OC)c(NC(=O)Cn2cnc3c(cnn3-c3ccccc3)c2=O)c1` here?
A: The Potency was inconclusive [inhibitor, single point].

Q: With `Cc1nc2ccccc2nc1CN1CCN(Cc2ccc(F)c(F)c2)C(CCO)C1` (stereo unspecified) as the compound, how does the “activity change, negative = inhibition” value read?
A: Its value is inactive: -3.89%.

Q: For `O=C(CN(Cc1ccccc1F)C(=O)Cn1nnc(-c2cccs2)n1)NCC1CCCO1` (stereo unspecified), which Potency is on record?
A: Its Potency is inconclusive [inhibitor, full curve, poor fit].

Q: Which Potency does the source give for `O=C(Nc1ccncc1NC(=O)c1cccc([N+](=O)[O-])c1)c1cccc([N+](=O)[O-])c1` here?
A: Its Potency is inconclusive [inhibitor, single point].

Q: With `COc1ccc(OC)c(CN2CCC(CNC(=O)Nc3cccc(Cl)c3)CC2)c1` as the compound, how does the Potency read?
A: The Potency was inconclusive [inhibitor, partial curve].

Q: For `CC(C)(C)c1ccc(NC(=O)c2ccsc2)cc1`, which “activity change, negative = inhibition” value is on record?
A: Its value is inactive: -24.8%.

Q: For `Cc1cc2nc(-c3ccc(SCC(=O)Nc4ccc(S(=O)(=O)NC5CC5)cc4)nc3)[nH]c2cc1C`, which Potency is on record?
A: The Potency was inconclusive [inhibitor, partial curve].

Q: With `CCCc1cc(=O)oc2cc(OCC(=O)NC3CC(C)(C)NC(C)(C)C3)ccc12` as the compound, how does the Potency read?
A: The Potency was inconclusive [inhibitor, single point].

Q: With `CCOc1ccc(NC(=O)C2CCCN2S(=O)(=O)c2ccc3c(c2)C(C)(C)C(=O)N3C)cc1` (stereo unspecified) as the compound, how does the Potency read?
A: The Potency was inconclusive [inhibitor, single point].

Q: For `COc1ccccc1C(=O)Nc1ccnn1C1CCN(C/C=C/c2ccc(F)cc2)CC1`, which Potency is on record?
A: Its Potency is inconclusive [inhibitor, single point].

Q: For `CCCc1nc2ccccc2c(C(=O)OCC(=O)Nc2cccc(S(=O)(=O)N3CCOCC3)c2)c1CC`, which Potency is on record?
A: The Potency was active: 8.91 µM.

Q: For `CCCCN=c1sc(C(=O)OC)cc(=O)n1CCCC`, which Potency is on record?
A: The Potency was inconclusive [inhibitor, single point].

Q: With `Cc1ccc(C(=O)N2CCN3C(=O)c4ccccc4C23c2ccc(Cl)cc2)cc1` (stereo unspecified) as the compound, how does the Potency read?
A: Its Potency is active: 10 µM.

Q: With `CCOc1ccc(C(=O)NC(=S)Nc2cccc(S(=O)(=O)NC3=NCCC3)c2)cc1` as the compound, how does the Potency read?
A: The Potency was active: 14.1 µM.

Q: For `O=C(NCCC1=CCCCC1)C1CCN(S(=O)(=O)c2cccc(C(F)(F)F)c2)CC1`, which Potency is on record?
A: Its Potency is active: 11.2 µM.

Q: Which Potency does the source give for `Cc1ccc(C(=O)Nc2ccc(S(=O)(=O)NCc3ccco3)cc2)cc1` here?
A: Its Potency is inconclusive [inhibitor, single point].

Q: With `O=C(Nc1cccc(S(=O)(=O)N2CCCC2)c1)c1ccc(Cl)nc1` as the compound, how does the Potency read?
A: The Potency was inconclusive [inhibitor, partial curve].

Q: With `COC(=O)c1c(NC(=O)C2(C)Cc3ccccc3C(=O)O2)sc2c1CCCC2` (stereo unspecified) as the compound, how does the Potency read?
A: Its Potency is inconclusive [inhibitor, full curve].

Q: For `COc1ccc(C(=O)Nc2nc(C)c(C(C)=O)s2)cc1S(=O)(=O)N1CCOCC1`, which “activity change, negative = inhibition” value is on record?
A: Its value is inactive: -16.3%.

Q: With `CCOc1ccc(N2C(=O)CC(C(C)c3ccccc3)C2=O)cc1` (stereo unspecified) as the compound, how does the “activity change, negative = inhibition” value read?
A: Its value is inactive: -18.6%.

Q: Which Potency does the source give for `CCCOC(=O)Nc1cc(OC)c(Cl)cc1OC` here?
A: Its Potency is inconclusive [inhibitor, single point].

Q: With `O=C1CC(N2CCN(CCc3ccccn3)CC2)C(=O)N1c1ccc(Cl)cc1` (stereo unspecified) as the compound, how does the Potency read?
A: Its Potency is inconclusive [inhibitor, single point].

Q: For `N#Cc1cn(-c2ccccc2)nc1-c1ccccc1`, which Potency is on record?
A: The Potency was inconclusive [inhibitor, partial curve].

Q: For `COc1ccc(C2SCCN2C(=S)Nc2ccc(Cl)cc2)cc1` (stereo unspecified), which Potency is on record?
A: Its Potency is inconclusive [inhibitor, single point].

Q: With `N/C(=N\OC(=O)/C=C/c1ccccc1Cl)c1ccccn1` as the compound, how does the “activity change, negative = inhibition” value read?
A: The value was inactive: 4.21%.

Q: For `O=C(Nc1ccc(F)cc1)C1C(c2ccccc2)C1(Cl)Cl` (stereo unspecified), which “activity change, negative = inhibition” value is on record?
A: Its value is inactive: 11.5%.

Q: Which “activity change, negative = inhibition” value does the source give for `Cc1cc(C)c(C(=O)N2CCCC(CNC(=O)C3(c4ccc(Cl)cc4)CC3)C2)c(=O)[nH]1` (stereo unspecified) here?
A: The value was inactive: 3.84%.

Q: Which “activity change, negative = inhibition” value does the source give for `COc1cc(NC(=S)N2CCN(S(C)(=O)=O)CC2)cc(OC)c1` here?
A: Its value is inactive: 3.66%.

Q: Which Potency does the source give for `Cc1cc(=O)cc(C)n1-c1ccc2c(c1)nc(C)n2-c1ccccc1` here?
A: The Potency was inconclusive [inhibitor, partial curve].

Q: With `CCCCOC(=O)C1[C@H]2C(=O)N(Cc3cccs3)C[C@]23C=C[C@H]1O3` (stereo partly specified) as the compound, how does the “activity change, negative = inhibition” value read?
A: Its value is inactive: -28.7%.

Q: Which Potency does the source give for `COc1cccc(NC(=O)NC2CCN(CC(=O)Nc3ccccc3[N+](=O)[O-])CC2)c1` here?
A: The Potency was inconclusive [inhibitor, partial curve].

Q: Which Potency does the source give for `C=CCS/C(N)=N\N=C\c1c(O)ccc2ccccc12` here?
A: The Potency was active: 22.4 µM.

Q: With `CCOc1cccc(C(=O)Nc2ccccc2N2CCN(C(=O)C(C)C)CC2)c1` as the compound, how does the “activity change, negative = inhibition” value read?
A: The value was inactive: -29.2%.

Q: With `Cc1ccccc1-c1nnc(SCC(=O)NC2CCCC2)n1C` as the compound, how does the “activity change, negative = inhibition” value read?
A: Its value is inactive: 8.08%.

Q: Which Potency does the source give for `COc1cc(NC(=S)NC(=O)c2ccccc2F)ccc1NC(=O)c1ccco1` here?
A: Its Potency is inconclusive [inhibitor, full curve, poor fit].

Q: With `O=C(Nc1ccc(Cl)cc1F)C1CC(=O)N(Cc2ccco2)C1` (stereo unspecified) as the compound, how does the “activity change, negative = inhibition” value read?
A: The value was inactive: 1.16%.

Q: Which Potency does the source give for `O=C1CN=C(Nc2ccc(Cl)cc2)N1c1ccccc1` here?
A: The Potency was inconclusive [inhibitor, single point].

Q: For `Cc1ccc(-c2csc3nc(CN(C)Cc4ccccc4)[nH]c(=O)c23)cc1`, which “activity change, negative = inhibition” value is on record?
A: Its value is inactive: -5.56%.

Q: Which “activity change, negative = inhibition” value does the source give for `Cc1ccc(CNCc2cc(Cl)ccc2O)cc1` here?
A: Its value is inactive: 5.75%.

Q: Which Potency does the source give for `Cc1cc(C)c2nc(NNC(=O)c3ccc(S(=O)(=O)N4CCCC(C)C4)cc3)sc2c1` (stereo unspecified) here?
A: The Potency was active: 7.94 µM.
